Assay results: PubChem BioAssay AID1508642 (National Center for Advancing Translational Sciences (NCATS), 2021)
The whole screen tested about 43,000 compounds, of which about 200 (0.47%) were called active. Inconclusive results (about 12%) are left out. Calls follow the shape of the dose curve; as a rule, active = well fitted cell-killing curve with a large enough effect; inconclusive = small, poorly fitted or top-dose-only effect, or effect the other way; inactive = flat fitted curve, though single readings scatter. Some of the results follow.

Experiment: Cell viability qHTS assay in S16 Pmp22-F2sN cells; also: nearly all actives have a fitted effect of over 65% in size
Conditions: S16 Pmp22-F2sN Schwann cells (luciferase reporters placed in the Pmp22 gene) viability, CellTiter-Glo, 24 h; series mostly up to 57.5 µM; activity change, negative = cytotoxicity: at the top concentration
How it was run: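 CellTiter-Glo counter-screen, qHTS, 1536-well. Cells: S16(c9) Pmp22-F2sN, 500-1,000/well in DMEM + 10% FBS. Cpd 23 nL pin transfer, 24 h, 37C/5% CO2. Read: luminescence, CCD imager.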
% is scaled to controls: 0 for no effect and ±100 for the full control effect.

Compound	activity change, negative = cytotoxicity
O=C(O)c1ccc(C2Nc3ccccc3-c3nnc(SCc4ccc(Cl)cc4)nc3O2)cc1 (stereo not drawn)	inactive: 12.5%
Cn1c(=O)cc(SCC(=O)N2CCN(c3ccccc3)CC2)c2ccccc21	inactive: -11.8%
COc1cc(OC)c(NC(=O)N2CC=C(c3c[nH]c4ccccc34)CC2)cc1Cl	inactive: -4.25%
COc1cccc(C(=O)Nc2ccc(C(=O)OCc3cc(=O)n4nc(C5CC5)sc4n3)cc2)c1	inactive: -0.822%
Cc1ccc(-c2cc(C(F)(F)F)n3ncc(-c4ccc(Cl)cc4)c3n2)cc1	inactive: 4.68%
CCOC(=O)C1CCN(C(=O)c2ccc3c(c2)N=C(CC)c2cc(C)ccc2S3)CC1	inactive: -13.2%
CCCCn1c(=O)nc2n(-c3ccc(F)cc3)c3ccccc3cc-2c1=O	inactive: 13%
CC(Sc1nc2c([nH]c3ccccc32)c(=O)n1-c1ccccc1)c1ccccc1 (stereo not drawn)	inactive: 18.3%
Cc1cc(F)ccc1NC(=O)CCSc1nc(-c2ccco2)cc(C(F)(F)F)n1	inactive: -26.9%
COC(=O)COc1ccc(Oc2nc(NC(C)(C)C)nc(N(C)C)n2)nn1	inactive: -2.06%
COc1ccc(-c2cc3ccc(O)c(CN4CCCC4)c3oc2=O)cc1OC	inactive: -12.6%
Cc1ccc(C)c(CNC(=O)c2sc3ncnc(N(C)C4CCCCC4)c3c2C)c1	inactive: 4.38%
CCn1c(CC2C(=O)N(C)c3ccc(Br)cc32)nc2ccccc2c1=O (stereo not drawn)	inactive: -20.6%
CCc1cc2c(cc3c(=O)n(CC(=O)NCCOC)nc(CC)n32)s1	inactive: 19.1%
Cc1ccc(C(=O)NC2(C(F)(F)F)N=C(c3ccccc3)N(C3CCCCC3)C2=O)cc1 (stereo not drawn)	inactive: 3.48%
COc1ccc(CNC(=O)c2cn(-c3cccc(OC)c3)c(=O)c3ccccc23)cc1	inactive: 9.66%
COc1ccc(C(=O)NCC(c2ccc3c(c2)OCO3)N2CCOCC2)cc1OC (stereo not drawn)	inactive: -8.75%
COc1cc(C)ccc1OCCSc1nc2ccc(NC(C)=O)cc2s1	inactive: -0.105%
CCCCCn1c(=O)c2c(nc3n2CCN3c2ccc(Br)cc2)n(C)c1=O	inactive: 29.2%
CCOC(=O)c1ccc(NC(=O)Cn2cnc3sc(C(=O)OCC)c(C)c3c2=O)cc1	inactive: -1.82%
CCc1ccc(NC(=O)CSc2nc3c([nH]c4ccccc43)c(=O)n2-c2cccc(OC)c2)cc1	inactive: 7.4%
CCC(Sc1nnc2c3ccccc3n(C)c2n1)C(=O)Nc1nnc(C(C)C)s1 (stereo not drawn)	inactive: 3.25%
CCOc1ccc(NC(=O)CSc2nc(=O)[nH]c3c2CCC3)cc1	inactive: 6.45%
O=c1c(=O)n(Cc2ccc(Cl)cc2)ccn1Cc1ccc(F)cc1	inactive: 3.02%
Cc1ccc2c(c1)-c1c(cnn1CC(=O)N1CCN(c3ccccc3F)CC1)CO2	inactive: 0.0062%

Compound	activity change, negative = cytotoxicity
COCCCNC(=O)c1cnc2sc(N3CCCCCC3)nn2c1=O	inactive: 6.59%
COc1cccc(NC(=O)CCc2nc3c(C)nn(-c4ccc(C)cc4)c3n(C)c2=O)c1	inactive: 0.557%
CCCCN(CCCNC(=O)CN1N=C(c2ccc(C)cc2)CCC1=O)c1ccccc1	inactive: -8.48%
CCN(CC)C(=O)CSc1nc2ccsc2c(=O)n1Cc1ccccc1Cl	inactive: -3.34%
Cc1cc(C)n2c(Nc3ccc(C(C)C)cc3)c(-c3ccsc3)nc2n1	inactive: -9.98%
COc1cccc(OCC(=O)NCCS(=O)(=O)N2CCN(c3ccccc3F)CC2)c1	inactive: -4.12%
Cc1oc2ncn(CC(C)C)c(=O)c2c1C(=O)NCCc1ccccc1	inactive: -10.9%
Cc1ccc(-c2nc(CNC(=O)Nc3ccccc3)c(C)o2)cc1	inactive: -19.4%
COc1ccc(-c2cn3cccnc3n2)cc1NC(=O)Cc1ccccc1	inactive: -6.65%
Cc1ccc(NC(=O)Cn2c(=O)oc3cc(S(=O)(=O)N4CCCCC4)ccc32)c(Cl)c1	inactive: -1.97%
c1ccc(-c2noc(-c3cccnc3NCc3ccco3)n2)cc1	inactive: 21%
COCCNC(=O)Cn1c(=O)n(CCCCCC(=O)NCc2ccccc2Cl)c(=O)c2sccc21	inactive: 8.39%
Cc1c(-c2cccc(NC(=O)Nc3ccc(Cl)cc3)c2)nc2ncccn12	inactive: -7.09%
COc1ccccc1-c1noc(-c2ccc(NC3CCCCC3)c([N+](=O)[O-])c2)n1	inactive: -3.71%
CC(C)(C)C1CCc2c(sc3nc(-c4cc5ccccc5oc4=O)[nH]c(=O)c23)C1 (stereo not drawn)	inactive: 18.5%
CCN(CC)CCCNC(=O)CCCn1ncn2c(cc3occc32)c1=O	inactive: 25.2%
CCOC(=O)C1CCCN(C(=O)Cn2ncc3c(C)n(Cc4ccccc4Cl)c(C)c3c2=O)C1 (stereo not drawn)	inactive: -2.68%
CCc1ccc(CNC(=O)c2cc3ccccn3n2)cc1	inactive: 2.28%
CCCc1nc2ccccc2n1CC(O)COc1ccc(C(=O)OC)cc1 (stereo not drawn)	inactive: 17.1%
COc1ccc(-n2c(SCC(=O)N3CCc4ccccc43)nc3c([nH]c4ccccc43)c2=O)cc1	inactive: 0.376%
COc1ccc(C(=O)Nc2ccc3oc(-c4ccc(F)cc4Cl)nc3c2)cc1	inactive: 12.1%
CC(C)(C)OC(=O)N1CCC(c2c(C(=O)N3CCN(c4ccccn4)CC3)cnn2-c2ccccc2)CC1	inactive: 6.17%
COc1ccc(-c2nc(C)c(CCNC(=O)c3cccs3)s2)cc1OC	inactive: 1.87%
COc1ccccc1CNc1cc(C)nc2nc(-c3ccc(C)cc3)nn12	inactive: 19.2%
Cc1ccc2nc(NC(=O)CSc3nccn3-c3ccc(Cl)cc3)sc2c1	inactive: -1.89%

Compound	activity change, negative = cytotoxicity
CCC1CCCCN1S(=O)(=O)c1ccc(C(=O)Nc2sc3c(c2C(N)=O)CCC3)cc1 (stereo not drawn)	inactive: -25.5%
O=C(CSc1nnc(-c2ccccc2F)o1)Nc1cccc(C(F)(F)F)c1	inactive: 12.3%
O=C(Nc1ccc(Cl)cc1F)c1cnc2sc(N3CCOCC3)nn2c1=O	inactive: 8.06%
COCCCN1C(=O)c2ccccc2CC1(C)C(=O)NC1CCCCC1 (stereo not drawn)	inactive: 25.2%
COc1ccc(C2C(C(=O)Nc3ccc(Cl)cc3)=C(C)Nc3nc(SCc4cccc(C)c4)nn32)cc1OC (stereo not drawn)	inactive: 1.48%
Cc1ccc(OCC(=O)NCC2(N(C)C)CCCCC2)cc1C	inactive: 6.77%
Cc1ccc(C)c(NC(=O)Cn2c(=O)n(-c3ccc(CC(=O)NCC4CCCO4)cc3)c(=O)c3ccccc32)c1 (stereo not drawn)	inactive: -7.11%
CCCOc1ccc(C(=O)NCC2OCCc3ccccc32)cc1 (stereo not drawn)	inactive: 1.3%
Cc1ccc(CNc2oc(-c3ccc(COc4ccc(C)cc4)o3)nc2C#N)cc1	inactive: -6.41%
Cc1ccc(NC(=O)c2c(C)nc3sc(C(=O)Nc4ccc(F)cc4)c(N)c3c2-c2ccc(C)o2)c(C)c1	inactive: 1.56%
Cc1cc(CN2CCN(c3cccc(C)c3C)CC2)cs1	inactive: -12.7%
CCOC(=O)C1=C(CN2CCN(c3ccc(OC)cc3)CC2)NC(=O)NC1c1ccc(Cl)cc1 (stereo not drawn)	inactive: -17.3%
CCOc1ccc(NC(=O)C2CCCN(S(=O)(=O)c3c(C)noc3/C=C/N(C)C)C2)cc1 (stereo not drawn)	inactive: 0.418%
COc1cccc(-n2c(SCC(=O)Nc3nnc(C)s3)nc3c([nH]c4ccccc43)c2=O)c1	inactive: -14%
CC(C)Cn1c(=O)c2sccc2n2c(CCCC(=O)N3CCN(c4ccc(F)cc4)CC3)nnc12	inactive: 27.6%
Fc1ccc2[nH]c(-c3cccs3)cc2c1	inactive: 4.81%
Cc1cc(C)cc(NC(=O)c2cnc3sc(N4CCCC4)nn3c2=O)c1	inactive: -8.35%
CCOC(=O)c1c(S(=O)(=O)N2CCC(C(=O)Nc3ccc(C)cc3C)CC2)c(C)n(C)c1C	inactive: 12.8%
CCc1ccccc1NC(=O)c1nnn(Cc2ccc(Cl)cc2)c1N	inactive: -5.81%
COCCNC(=O)CSc1nc(-c2ccccc2)[nH]c1-c1ccc(OC)cc1	inactive: 1.02%
Cc1ccc(-c2nc(CSc3nncn4c3cc3occc34)c(C)o2)cc1	inactive: -0.384%
COc1ccc(C)cc1NC(=O)N1CC(C)Sc2ccccc21 (stereo not drawn)	inactive: 19.4%
Cc1ccc(Cn2cc(C(=O)c3ccc4c(c3)OCO4)c(=O)c3cc(C)ccc32)cc1	inactive: -4.55%
O=C(Nc1cccc(C(F)(F)F)c1)c1cc2nc(-c3ccc4c(c3)OCO4)cc(C(F)(F)F)n2n1	inactive: -3.88%
COc1cc(NC(=O)Cn2c(=O)n(CC3CCCO3)c(=O)c3ccccc32)cc(OC)c1 (stereo not drawn)	inactive: 16.6%

Compound	activity change, negative = cytotoxicity
CCOc1ccc(CCNc2nc3ccccc3n3c(C)nnc23)cc1OCC	inactive: -2.7%
COc1ccc(C(=O)Nc2nnc(C(C)C)s2)cc1OC	inactive: 10.6%
COc1ccc2sc(N(Cc3cccnc3)C(=O)COc3ccccc3)nc2c1	inactive: 7.6%
Cc1cc(C)cc(NC(=O)Nc2nnc(N(C)C3CCCCC3)s2)c1	inactive: 4.56%
COc1ccccc1-c1noc(CCCC(=O)NCc2ccco2)n1	inactive: 9.41%
COc1ccccc1Cc1nc2ccccc2nc1SCC(=O)Nc1cc(Cl)ccc1OC	inactive: -6.27%
CC(=O)c1ccc(NS(=O)(=O)c2ccc(-c3cnc(C4CC4)o3)cc2)cc1	inactive: 6.01%
Cc1ccc(CNC(=O)c2cnn(-c3cccc(C)c3)c2C2CCN(C(=O)OC(C)(C)C)CC2)cc1	inactive: -29.6%
CCCCc1nn2c(=O)cc(COC(=O)c3ccc(NC(=O)C(CC)CC)cc3)nc2s1	inactive: 14.2%
Cc1ccc(NC(=O)c2cc3nc(-c4ccccc4)cc(-c4ccccc4)n3n2)cc1	inactive: 1.5%
CCn1cnc2c(=O)oc3ccc(S(=O)(=O)Nc4ccc(OC)cc4)cc3c21	inactive: -2.24%
COc1ccc(CCNC(=O)c2ccc(Cn3c(=O)c4ccccc4n(Cc4cccc(C)c4)c3=O)cc2)cc1OC	inactive: 15.1%
CCOCCCn1c(=N)c(C(=O)NC2CCCC2)cc2c(=O)n3cc(C)ccc3nc21	inactive: 18.1%
Cc1ccc2[nH]c(=O)c(CN(C(=O)c3cccc(Cl)c3)C(C)(C)C)cc2c1	inactive: -0.739%
Cc1ccccc1C(=O)Nc1cccc(C(=O)OCc2cc(=O)n3ccsc3n2)c1	inactive: -4.58%
Cc1ccc(C(=O)COC(=O)C(Cc2c[nH]c3ccccc23)NC(=O)c2ccc(C(C)(C)C)cc2)cc1 (stereo not drawn)	inactive: 8.06%
CSc1ccc(Cn2nnc(C(=O)Nc3ccc(C)cc3Cl)c2N)cc1	inactive: 1.29%
Cc1cc(C)cc(NC(=O)CSc2nc(=O)n(Cc3ccccn3)c3c2CCC3)c1	inactive: -13.1%
CCOC(=O)C(C)Sc1nc(-c2ccccc2Cl)cc(-c2ccccc2)c1C#N (stereo not drawn)	inactive: 1.46%
CCN(c1ccccc1)S(=O)(=O)c1ccc(-c2cc(C)no2)s1	inactive: -12.5%
CC(C)CC(=O)Nc1cc(-c2ccccc2F)nn1-c1ccccc1	inactive: -6.41%
Cc1cccc(C)c1OCc1cc(=O)n2c3c(sc2n1)CCCC3	inactive: 19.3%
Cc1cccc(Oc2nc3c(c(=O)n(C)c(=O)n3C)n2Cc2ccccc2)c1C	inactive: 14%
